The record followed here is article PMC7247549, “Biochemical Convergence of Mitochondrial Hsp70 System Specialized in Iron–Sulfur Cluster Biogenesis” (International Journal of Molecular Sciences, 2020).

The target of the experiment is T1, HscA (E. coli, UniProt P0A6Z1 1-616).
T1 construct: HscA, Hsp70 of E. coli specialized in FeS biogenesis; expressed from pTrcHscA; no tag is named; also called specialized bacterial Hsp70 HscA; source: E. coli DH5α with pTrcHscA, purified (Q-sepharose, Phenyl Sepharose)
T1 sequence (looked up): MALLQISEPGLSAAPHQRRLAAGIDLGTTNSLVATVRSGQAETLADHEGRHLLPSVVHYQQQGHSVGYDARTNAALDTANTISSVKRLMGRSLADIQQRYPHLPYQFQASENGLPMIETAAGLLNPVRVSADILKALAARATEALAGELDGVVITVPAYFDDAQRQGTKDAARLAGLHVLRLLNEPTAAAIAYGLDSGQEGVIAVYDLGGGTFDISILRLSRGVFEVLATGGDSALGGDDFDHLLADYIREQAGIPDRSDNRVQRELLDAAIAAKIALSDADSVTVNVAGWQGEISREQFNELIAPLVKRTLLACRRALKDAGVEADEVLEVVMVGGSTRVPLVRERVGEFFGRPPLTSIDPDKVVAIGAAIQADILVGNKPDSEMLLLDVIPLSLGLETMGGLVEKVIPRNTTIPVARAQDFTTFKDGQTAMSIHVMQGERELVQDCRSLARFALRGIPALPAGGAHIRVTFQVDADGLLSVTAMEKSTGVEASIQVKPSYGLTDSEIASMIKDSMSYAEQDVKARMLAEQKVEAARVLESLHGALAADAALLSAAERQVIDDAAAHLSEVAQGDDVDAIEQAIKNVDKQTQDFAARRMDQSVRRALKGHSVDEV
The experiment can be described thus: pull-down; IscU-GST at fixed concentration incubated with increasing HscA, 4 mM ATP, PD buffer, 30 min at 30 °C, then glutathione resin; SDS-PAGE, Coomassie, densitometry. The settings on record: both partners purified.

B1: IscU-GST (natural protein, E. coli, UniProt P0ACD4 1-128, looked up)
chain: MAYSEKVIDHYENPRNVGSFDNNDENVGSGMVGAPACGDVMKLQIKVNDEGIIEDARFKTYGCGSAIASSSLVTEWVKGKSLDEAQAIKNTDIAEELELPPVKIHCSILAEDAIKAAIADYKSKREAK
notes: IscU, FeS scaffold protein of E. coli; expressed from pET3aIscU-GST; also called IscU-GST fusion protein; source: E. coli C41(DE3) with pET3aIscU-GST, purified (glutathione agarose)
Regarding B1, the binding result is reported as “binds”.
